Each structure is given as a SMILES string. The whole screen tested about 48,000 compounds, of which about 550 (1.1%) were called active. Not shown: some 4% with an inconclusive outcome. No stated cut-off is given here; in the data, active means potency below about 15 µM; inconclusive means mostly about 16 µM to 33 µM; inactive means weaker than that. The list shows a part of the results.
Potency means the concentration at half of the fitted maximal effect.

Chain of UniProt P04062 (P04062 whole entry, looked up): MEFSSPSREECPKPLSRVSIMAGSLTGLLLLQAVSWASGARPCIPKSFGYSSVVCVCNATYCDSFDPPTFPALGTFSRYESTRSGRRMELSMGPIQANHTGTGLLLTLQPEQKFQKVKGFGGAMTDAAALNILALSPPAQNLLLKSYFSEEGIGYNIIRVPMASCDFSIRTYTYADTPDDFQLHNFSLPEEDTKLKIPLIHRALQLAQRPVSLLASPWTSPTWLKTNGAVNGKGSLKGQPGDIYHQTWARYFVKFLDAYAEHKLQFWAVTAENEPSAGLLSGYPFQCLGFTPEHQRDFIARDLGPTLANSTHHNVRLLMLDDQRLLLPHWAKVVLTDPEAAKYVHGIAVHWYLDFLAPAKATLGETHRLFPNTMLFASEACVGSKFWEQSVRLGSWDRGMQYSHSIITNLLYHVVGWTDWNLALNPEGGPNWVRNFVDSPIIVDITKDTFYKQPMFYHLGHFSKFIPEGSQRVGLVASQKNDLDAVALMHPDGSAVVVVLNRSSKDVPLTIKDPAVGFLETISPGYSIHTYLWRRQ

The target of the experiment is Lysosomal acid glucosylceramidase (Homo sapiens) (UniProt P04062). In words: Glucocerebrosidase.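 Further: the screen sought inhibitors.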 Conditions: purified enzyme, resorufin glucoside fluorescence (screen aimed at inhibitors), 20 min; series mostly up to 77 µM. The essentials:
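Wild-type enzyme at 0.2 nM final in 50mM citric acid/KH2PO4, 10mM sodium taurocholate, 0.01% tween-20, pH 5.9, with resorufin beta-D-glucopyranoside at 30 uM final. Compounds titrated, 20 min at RT, red fluorescence read; AC50 from titration.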
For `CN(C)c1ccc(CNC23CN4CN(CN(C4)C2)C3)cc1`, the Potency is inactive: > 76.9 µM.

For `CCOC(=O)c1cc(C#N)c(SCC(=O)c2cc(C#N)c(SC)nc2C)nc1C`, the Potency is inactive: > 76.9 µM.

`O=C(CCC(=O)N(CC(=O)NC1CCCCC1)Cc1ccco1)Nc1nccs1`: the Potency is inactive: > 76.9 µM.

Turning to `Cc1ccc2c(c1)c(C)c(C)n2CC(O)Cn1nnc2ccccc21` (stereo not given), the Potency was inactive: > 76.9 µM.

As to `COc1ccc(-c2nnn(CC(=O)N(CC(=O)NCCC(C)C)c3ccccc3)n2)cc1OC`, the Potency is inactive: > 76.9 µM.

In the case of `Cc1cc(C)nc(SC2CCOC2=O)n1` (stereo not given), the Potency was inactive: > 76.9 µM.

For `CCn1c(SCC(=O)Nc2ccc(C(C)=O)cc2)nc2ccccc21`, the Potency was inactive: > 76.9 µM.

As to `Cc1nc2ccc(NC(=O)Cn3cnc4c3c(=O)n(C)c(=O)n4C)cc2s1`, the Potency was inactive: > 76.9 µM.

`COC(=O)CCN1CCC(C(N)=O)CC1`: the Potency was inactive: > 76.9 µM.

As to `Cc1cc(C(=O)COC(=O)C2COc3ccccc3O2)c(C)n1CC1CCCO1` (stereo not given), the Potency is inactive: > 76.9 µM.

Turning to `COc1ccc(S(=O)(=O)N2CCC(C(=O)NCCc3ccc4c(c3)OCO4)CC2)cc1`, the Potency is inactive: > 76.9 µM.

Turning to `C/C(N)=C(/C#N)C(=O)CSc1n[nH]c(-c2ccccc2Br)n1`, the Potency is inactive: > 76.9 µM.

Consider `CN1C(=O)SC(Nc2ccccc2C(=O)O)C1=O` (stereo not given), for which the Potency was inactive: > 76.9 µM.

For the compound `O=C1CC(c2ccc3c(c2)OCO3)C2=C(CCCC2=O)N1` (stereo not given), the Potency is inactive: > 76.9 µM.

For the compound `CCN1CCN(C(c2cccs2)C(C)NC(=O)c2ccco2)CC1` (stereo not given), the Potency was inactive: > 76.9 µM.

For the compound `O=C(NCCCN1CCOCC1)c1cc(-c2ccc(F)cc2)on1`, the Potency is inactive: > 76.9 µM.

Regarding `O=C(CSc1nnc(-c2cccnc2)n1-c1ccccc1)Nc1ccccn1`, the Potency is inactive: > 76.9 µM.

With `O=C(NCCOc1ccccc1)C1CCCN1C(=O)c1cccs1` (stereo not given), the Potency was inactive: > 76.9 µM.

Take `Cc1c(C(=O)N2CCOCC2)oc2ccc(S(=O)(=O)N3CCCCCC3)cc12`: the Potency was inactive: > 76.9 µM.

Turning to `CCOc1ccc(CCNC(=O)CCN2C(=O)COc3ccccc32)cc1OCC`, the Potency was inactive: > 76.9 µM.

Consider `COc1cnn(-c2ccccc2)c(=O)c1N(C)C`, for which the Potency was inactive: > 76.9 µM.

Consider `CCOC(=O)N1CCN(C(=O)CSCC(=O)Nc2nc(-c3ccc(Cl)s3)cs2)CC1`, for which the Potency was inactive: > 76.9 µM.

For the compound `COc1ccc(-n2nnnc2SCC(=O)NCCc2ccc(OC)c(OC)c2)cc1`, the Potency was inactive: > 76.9 µM.

Consider `CCOc1ccccc1OCC(=O)OCC(=O)Nc1ncc(Cl)cc1Cl`, for which the Potency is inactive: > 76.9 µM.

For the compound `Cc1c(NS(C)(=O)=O)c(=O)n(-c2ccccc2)n1C`, the Potency is inactive: > 76.9 µM.

Turning to `O=C(COC(=O)C1CCCN1C(=O)c1cccs1)c1ccccc1` (stereo not given), the Potency is inactive: > 76.9 µM.

Take `O=C(NCC1CCCO1)C1CCC(CNS(=O)(=O)c2ccccc2)CC1` (stereo not given): the Potency is inactive: > 76.9 µM.

As for `CC(C)(C)N=C1SCC(C)(/C=N/O)S1` (stereo not given), the Potency is inactive: > 76.9 µM.

`O=C(CSc1nnc(-c2c[nH]c3ccccc23)n1-c1ccc(F)cc1)NCc1ccco1`: the Potency was inactive: > 76.9 µM.

Regarding `O=C1CCCN1CCC1CCN(C(=O)Nc2ccccc2)CC1`, the Potency is inactive: > 76.9 µM.

For the compound `CCOC(=O)c1ccc(-n2ncc(C(=O)OCC)c2N)cc1`, the Potency was inactive: > 76.9 µM.

As to `Cn1c(=O)cc(SCC(=O)NCCCN2CCOCC2)c2ccccc21`, the Potency is inactive: > 76.9 µM.

Consider `COC(=O)c1cc2ccccc2c(=O)s1`, for which the Potency is inactive: > 76.9 µM.

Turning to `O=C(O)Cc1csc2ccccc12`, the Potency was inactive: > 76.9 µM.

Regarding `CS(=O)(=O)N(CC(=O)NCCSc1ccccc1)c1ccc2c(c1)OCO2`, the Potency was inactive: > 76.9 µM.

Turning to `Cc1nc2c(oc3ccccc32)c(=O)o1`, the Potency was inactive: > 76.9 µM.

For the compound `O=C(NCCCN1CCOCC1)[C@@H]1CSC2c3ccccc3C(=O)N21` (stereo not given in full), the Potency was inactive: > 76.9 µM.

With `COCCCNc1oc(-c2ccccc2OC)nc1C#N`, the Potency is inactive: > 76.9 µM.

Take `Cn1c(CN2CCOCC2)nc2cc(NC(=O)c3ccccc3Cl)ccc21`: the Potency was inactive: > 76.9 µM.

Regarding `CSc1ccc(S(=O)(=O)Nc2cccc(F)c2)cc1`, the Potency result was “inactive”.

In the case of `COc1cccc(NC(=O)Cc2nnc(SCC(=O)c3ccccc3)n2C)c1`, the Potency is inactive: > 76.9 µM.

Regarding `Cc1cc(C(=O)CN2C(=O)NC(c3ccccc3)(c3ccccc3)C2=O)c(C)n1Cc1ccco1`, the Potency was inactive: > 76.9 µM.

As to `CCS(=O)(=O)n1nc(-c2ccc(C)cc2)nc1N`, the Potency was inactive: > 76.9 µM.

With `O=C1NCCN1Cc1cccc(Cl)c1`, the Potency is inactive: > 76.9 µM.

Regarding `CC(=O)Nc1ccc(NC(=O)N2CCCCC2)cc1`, the Potency is inactive: > 76.9 µM.

`Cc1cccc(N2CC3=C(C2=O)C(c2ccccc2)NC(=O)N3C)c1` (stereo not given): the Potency is inactive: > 76.9 µM.

For `CNc1sc(C(=O)c2cccs2)c(N)c1-c1nc2ccccc2s1`, the Potency was inactive: > 76.9 µM.

As to `CCc1ccc(NC(=O)CSc2nc3cc(C(=O)OC)ccc3c(=O)n2Cc2ccco2)cc1`, the Potency was inactive: > 76.9 µM.

Turning to `CCOC(=O)N1CCN(C(=O)CN(c2cccc(C)c2)S(=O)(=O)c2ccc(C)cc2)CC1`, the Potency was inactive: > 76.9 µM.

Consider `CCOC(=O)Cn1c(=O)oc2cc(S(=O)(=O)NCCc3ccc(OCC)c(OCC)c3)ccc21`, for which the Potency is inactive: > 76.9 µM.

Take `COc1ccc(C(C)=O)cc1COC(=O)c1cnc(C)cn1`: the Potency was inactive: > 76.9 µM.

As to `COc1ncnc2c1oc1nc(C(C)C)c3c(c12)CC(C)(C)OC3`, the Potency is inactive: > 76.9 µM.

In the case of `O=C(O)c1cccc(COc2ccc(CO)cc2Cl)c1`, the Potency is inactive: > 76.9 µM.

As for `O=c1sc2ccccc2n1CCOc1ccccc1`, the Potency is inactive: > 76.9 µM.

For the compound `O=C1c2ccccc2C(=O)N1CCCc1nc(-c2ccccn2)no1`, the Potency was inactive: > 76.9 µM.

In the case of `COc1ccccc1Oc1c(C)oc2c(CN3CCN(C)CC3)c(O)ccc2c1=O`, the Potency is inactive: > 76.9 µM.

As for `COc1ccc(NC(=O)C(C)NS(=O)(=O)c2ccc(NC(C)=O)cc2)cc1Cl` (stereo not given), the Potency is inactive: > 76.9 µM.

With `CC1CCCC(C)N1C(=O)Cn1c(SCC(=O)NCc2ccc3c(c2)OCO3)nc2ccccc21` (stereo not given), the Potency was inactive: > 76.9 µM.

On to `COc1ccc(NC(C)=O)cc1NC(=O)CSc1nnc(-c2ccc(F)cc2)n1N`, for which the Potency is inactive: > 76.9 µM.

Turning to `CN1C(=O)N(c2cccc3ccccc23)C(n2cncn2)C1(C)C` (stereo not given), the Potency is inactive: > 76.9 µM.

In the case of `C=CCn1c(SCC(=O)Nc2cc(NC(C)=O)ccc2OC)nnc1-c1ccccn1`, the Potency is inactive: > 76.9 µM.

With `Cn1c(-c2ccc3c(c2)OCO3)cnc1NC(=O)CCC(=O)NCCc1ccccc1`, the Potency was inactive: > 76.9 µM.

Regarding `COc1ccc(C2CC(=O)N3CN(Cc4ccco4)CSC3=C2C#N)cc1` (stereo not given), the Potency is inactive: > 76.9 µM.

For `Cc1ccc(S(=O)(=O)N(C)CC(=O)N2CCN(c3ccccn3)CC2)cc1`, the Potency is inactive: > 76.9 µM.

With `CN(C(=O)C12CC3CC(CC(C3)C1)C2)C1(C)CCS(=O)(=O)C1` (stereo not given), the Potency is inactive: > 76.9 µM.

For the compound `COc1ccc2nc(C)cc(Nc3ccc(N4CCOCC4)cc3)c2c1`, the Potency entry was “inactive”.

Consider `O=C(NCc1cccs1)c1ccncc1`, for which the Potency is inactive: > 76.9 µM.

For the compound `CCOC(=O)CSC1=C(C#N)C(c2ccccc2C)C2=C(CCCC2=O)N1` (stereo not given), the Potency is inactive: > 76.9 µM.

Regarding `O=c1c2cc(N3CCOCC3)ccc2[nH]c(=S)n1CC1CCCO1` (stereo not given), the Potency is inactive: > 76.9 µM.

Consider `CC(C)NC(=O)NC1C2CC3CC(C2)CC1C3` (stereo not given), for which the Potency was inactive: > 76.9 µM.

Regarding `COc1cc2c(C(=O)NCCCN3CCN(c4cccc(Cl)c4)CC3)cn(C)c(=O)c2cc1OC`, the Potency was inactive: > 76.9 µM.

In the case of `CCOc1ccc(NC(=O)COc2nsnc2N2CCCCC2)cc1`, the Potency was inactive: > 76.9 µM.

Consider `CC1=NCCN1S(=O)(=O)c1cc(Cl)ccc1Cl`, for which the Potency is inactive: > 76.9 µM.

For `Cc1cc(C)n(C(=O)CCCCCC(=O)n2nc(C)cc2C)n1`, the Potency was inactive: > 76.9 µM.

As to `Cc1ccc(-c2nnn(CC(=O)N(c3ccccc3)C(C(=O)NC3CCCC3)c3ccco3)n2)o1` (stereo not given), the Potency was inactive: > 76.9 µM.

On to `O=C(CSc1nnc(CNc2ccc(F)cc2)o1)N1CCCc2ccccc21`, for which the Potency is inactive: > 76.9 µM.

On to `Cc1cc(N(C)C)c(C#N)c(=O)[nH]1`, for which the Potency was inactive: > 76.9 µM.

Regarding `Cc1cc(OCC(=O)O)c2ccccc2n1`, the Potency is inactive: > 76.9 µM.

`COc1ccc(-c2noc(CN(C(=O)c3c(-c4ccccc4Cl)noc3C)C(C)C)n2)cc1`: the Potency was inactive: > 76.9 µM.

For `CCc1ccccc1N(C(=O)CCC(=O)Nc1cc(C)on1)C(C(=O)NC1CCCC1)c1ccco1` (stereo not given), the Potency was inactive: > 76.9 µM.

Consider `CCOC(=O)C1CCCN(CCC(C)c2ccccc2)C1` (stereo not given), for which the Potency was inactive: > 76.9 µM.

In the case of `COC(=O)c1ccccc1S(=O)(=O)N(Cc1cc2cc3c(cc2[nH]c1=O)OCO3)C1CCCCC1`, the Potency is inactive: > 76.9 µM.

As to `COc1ccc(-n2c(Cn3nnc4ccccc43)nnc2SCC(=O)O)cc1`, the Potency was inactive: > 76.9 µM.

Take `CCCS(=O)(=O)C(=C1Nc2ccccc2N1)S(=O)(=O)CCC`: the Potency was inactive: > 76.9 µM.

In the case of `CCCCOC(=O)C1=C(C)Nc2ncnn2C1c1cc(OC)c(OC)cc1OC` (stereo not given), the Potency is inactive: > 76.9 µM.

Consider `Cn1c(COc2ccc3ccccc3c2)nnc1SCC(N)=O`, for which the Potency was inactive: > 76.9 µM.

With `COc1cc(-c2noc(C3CCCN(S(=O)(=O)c4cccc(Cl)c4)C3)n2)cc(OC)c1OC` (stereo not given), the Potency was inactive: > 76.9 µM.

Regarding `C=CCc1c(C)nn(CC(=O)O)c1-c1ccccc1`, the Potency is inactive: > 76.9 µM.

Take `CS(=O)(=O)N(CC(=O)NCCSCc1cccc(Cl)c1)c1ccc2c(c1)OCO2`: the Potency was inactive: > 76.9 µM.

As to `O=C(CN1CCN(S(=O)(=O)c2ccc(F)cc2)CC1)Nc1ccc2c(c1)OCO2`, the Potency was inactive: > 76.9 µM.

The record behind these values is PubChem BioAssay AID360 (National Center for Advancing Translational Sciences (NCATS), 2006).
